In patent US20230416330A1, “Optimized GIP Peptide Analogues” (Antag Therapeutics ApS, priority 2019, published 2023):
Some of these results come from one statement about several compounds together. Residues, ends and D or L forms follow the SMILES beside them. *: point of attachment. C16 diacid = O=C(O)CCCCCCCCCCCCCCC(=O)*

Experiment: Physical stability: fibril formation in Thioflavin T (ThT) assay with agitation
Assay type: physicochemical
Conditions: ThT assay, Table 3; fatty acid attached at different positions
Method: Continuous measurement of the fluorescence emission at 486 nm can be used as a measure of fibrillation behavior of peptides and proteins. The time until onset of fibrillation or fibrillation lag time is estimated here by defining the lag time (Tlag) as the point in time where the signal relative to the pre-transition baseline has reached 10% of the post-transition baseline.
50 mM sodium phosphate buffer for dissolving some samples was prepared in ultrapure water (Milli-Q® Reference A+ System, Merck) with a resistivity of 18.2 MΩ·cm. The buffer was adjusted to pH 7.4 and filtered.
The ultrapure water (MilliQ) for dissolving some samples was adjusted to pH 7.4 with NaOH and filtered prior to sample preparation.
Peptides were either dissolved in sodium phosphate buffer (50 mM, pH 7.4, filtered) or dissolved in ultrapure (MilliQ) water (adjusted to pH 7.4 with NaOH, filtered) (see Table 3). All peptide samples were prepared to a concentration of 1, 5, 7.5 or 15 mg/ml. All samples, with the exception of reference peptides GIP(3-30), AT158, and AT482 dissolved readily and produced clear and colorless solutions with gentle mixing. Peptide samples were subsequently filtered through 0.22 μm nylon filters (Q-Max® RR syringe filter, 13 mm, Frisenette, DK) to produce particle-free solutions. All samples were added to a 96-well plate reader for the ThT assay at t=0.
For each sample, […] ThT (1 mM) was added to 1.2 mL peptide solution. From this sample mixture, an amount of 200 uL/well was pipetted into four or five wells (n=4 or 5). Blank samples (buffer+ThT) were also included. One 3 mm silica bead was added to each well containing samples and the plate was subjected to orbital rotation at 300 rpm to agitate and stress the samples. The temperature was kept at 25° C. throughout the measurement.

`CC[C@H](C)[C@H](NC(=O)[C@H](CO)NC(=O)[C@H](Cc1ccc(O)cc1)NC(=O)[C@H](CC(=O)O)NC(=O)[C@H](CO)NC(=O)[C@@H](NC(=O)[C@H](Cc1ccccc1)NC(=O)[C@@H](NC(=O)CNC(=O)[C@@H](N)CCC(=O)O)[C@@H](C)O)[C@@H](C)CC)C(=O)N[C@@H](C)C(=O)N[C@@H](CCSC)C(=O)N[C@@H](CC(=O)O)C(=O)N[C@@H](CCCCN)C(=O)N[C@H](C(=O)N[C@@H](Cc1c[nH]cn1)C(=O)N[C@@H](CCC(N)=O)C(=O)N[C@@H](CCC(N)=O)C(=O)N[C@@H](CC(=O)O)C(=O)N[C@@H](Cc1ccccc1)C(=O)N[C@H](C(=O)N[C@@H](CCC(=O)O)C(=O)N[C@@H](Cc1c[nH]c2ccccc12)C(=O)N[C@@H](CC(C)C)C(=O)N[C@@H](CC(C)C)C(=O)N[C@@H](C)C(=O)N[C@@H](CCC(N)=O)C(=O)N[C@@H](CCCCN)C(=O)N1CCC[C@H]1C(=O)N[C@@H](CO)C(=O)N[C@@H](CO)C(=O)N[C@@H](CCCCNC(=O)CCCCCCCCCCCCCCC(=O)O)C(=O)N[C@@H](C)C(=O)N1CCC[C@H]1C(=O)N1CCC[C@H]1C(=O)N1CCC[C@H]1C(=O)N[C@@H](CO)C(=O)O)C(C)C)[C@@H](C)CC` [AT743] (H-EGTFISDYSIAMDKIHQQDFVEWLLAQKPSSK(C16 diacid)APPPS-OH; N-terminus assumed) gave a Time without fibrillation of over 96 h.

`CC[C@H](C)[C@H](NC(=O)[C@H](CCCCN)NC(=O)[C@H](CC(=O)O)NC(=O)[C@H](CCSC)NC(=O)[C@H](C)NC(=O)[C@H](CCCCNC(=O)CCCCCCCCCCCCCCC(=O)O)NC(=O)[C@H](CO)NC(=O)[C@H](Cc1ccc(O)cc1)NC(=O)[C@H](CC(=O)O)NC(=O)[C@H](CO)NC(=O)[C@@H](NC(=O)[C@H](Cc1ccccc1)NC(=O)[C@@H](NC(=O)CNC(=O)[C@@H](N)CCC(=O)O)[C@@H](C)O)[C@@H](C)CC)C(=O)N[C@@H](Cc1c[nH]cn1)C(=O)N[C@@H](CCC(N)=O)C(=O)N[C@@H](CCC(N)=O)C(=O)N[C@@H](CC(=O)O)C(=O)N[C@@H](Cc1ccccc1)C(=O)N[C@H](C(=O)N[C@@H](CCC(=O)O)C(=O)N[C@@H](Cc1c[nH]c2ccccc12)C(=O)N[C@@H](CC(C)C)C(=O)N[C@@H](CC(C)C)C(=O)N[C@@H](C)C(=O)N[C@@H](CCC(N)=O)C(=O)N[C@@H](CCCCN)C(=O)N1CCC[C@H]1C(=O)N[C@@H](CO)C(=O)N[C@@H](CO)C(=O)NCC(=O)N[C@@H](C)C(=O)N1CCC[C@H]1C(=O)N1CCC[C@H]1C(=O)N1CCC[C@H]1C(=O)N[C@@H](CO)C(=O)O)C(C)C` [AT739] (H-EGTFISDYSK(C16 diacid)AMDKIHQQDFVEWLLAQKPSSGAPPPS-OH; N-terminus assumed) gave a Time without fibrillation of over 96 h.

For `CC[C@H](C)[C@H](NC(=O)[C@H](CO)NC(=O)[C@H](Cc1ccc(O)cc1)NC(=O)[C@H](CC(=O)O)NC(=O)[C@H](CO)NC(=O)[C@@H](NC(=O)[C@H](Cc1ccccc1)NC(=O)[C@@H](NC(=O)CNC(=O)[C@@H](N)CCC(=O)O)[C@@H](C)O)[C@@H](C)CC)C(=O)N[C@@H](C)C(=O)N[C@@H](CCSC)C(=O)N[C@@H](CC(=O)O)C(=O)N[C@@H](CCCCN)C(=O)N[C@@H](CCCCNC(=O)CCCCCCCCCCCCCCC(=O)O)C(=O)N[C@@H](Cc1c[nH]cn1)C(=O)N[C@@H](CCC(N)=O)C(=O)N[C@@H](CCC(N)=O)C(=O)N[C@@H](CC(=O)O)C(=O)N[C@@H](Cc1ccccc1)C(=O)N[C@H](C(=O)N[C@@H](CCC(=O)O)C(=O)N[C@@H](Cc1c[nH]c2ccccc12)C(=O)N[C@@H](CC(C)C)C(=O)N[C@@H](CC(C)C)C(=O)N[C@@H](C)C(=O)N[C@@H](CCC(N)=O)C(=O)N[C@@H](CCCCN)C(=O)N1CCC[C@H]1C(=O)N[C@@H](CO)C(=O)N[C@@H](CO)C(=O)NCC(=O)N[C@@H](C)C(=O)N1CCC[C@H]1C(=O)N1CCC[C@H]1C(=O)N1CCC[C@H]1C(=O)N[C@@H](CO)C(=O)O)C(C)C` [AT742] (H-EGTFISDYSIAMDKK(C16 diacid)HQQDFVEWLLAQKPSSGAPPPS-OH; N-terminus assumed), the Time without fibrillation was over 96 h.

For `CC[C@H](C)[C@H](NC(=O)[C@H](CO)NC(=O)[C@H](Cc1ccc(O)cc1)NC(=O)[C@H](CC(=O)O)NC(=O)[C@H](CO)NC(=O)[C@@H](NC(=O)[C@H](Cc1ccccc1)NC(=O)[C@@H](NC(=O)CNC(=O)[C@@H](N)CCC(=O)O)[C@@H](C)O)[C@@H](C)CC)C(=O)N[C@@H](C)C(=O)N[C@@H](CCSC)C(=O)N[C@@H](CC(=O)O)C(=O)N[C@@H](CCCCNC(=O)CCCCCCCCCCCCCCC(=O)O)C(=O)N[C@H](C(=O)N[C@@H](Cc1c[nH]cn1)C(=O)N[C@@H](CCC(N)=O)C(=O)N[C@@H](CCC(N)=O)C(=O)N[C@@H](CC(=O)O)C(=O)N[C@@H](Cc1ccccc1)C(=O)N[C@H](C(=O)N[C@@H](CCC(=O)O)C(=O)N[C@@H](Cc1c[nH]c2ccccc12)C(=O)N[C@@H](CC(C)C)C(=O)N[C@@H](CC(C)C)C(=O)N[C@@H](C)C(=O)N[C@@H](CCC(N)=O)C(=O)N[C@@H](CCCCN)C(=O)N1CCC[C@H]1C(=O)N[C@@H](CO)C(=O)N[C@@H](CO)C(=O)NCC(=O)N[C@@H](C)C(=O)N1CCC[C@H]1C(=O)N1CCC[C@H]1C(=O)N1CCC[C@H]1C(=O)N[C@@H](CO)C(=O)O)C(C)C)[C@@H](C)CC` [AT741] (H-EGTFISDYSIAMDK(C16 diacid)IHQQDFVEWLLAQKPSSGAPPPS-OH; N-terminus assumed), the Time without fibrillation was over 96 h.

Work on `CC[C@H](C)[C@H](NC(=O)[C@H](CCCCN)NC(=O)[C@H](CC(=O)O)NC(=O)[C@H](CCSC)NC(=O)[C@H](CCCCNC(=O)CCCCCCCCCCCCCCC(=O)O)NC(=O)[C@@H](NC(=O)[C@H](CO)NC(=O)[C@H](Cc1ccc(O)cc1)NC(=O)[C@H](CC(=O)O)NC(=O)[C@H](CO)NC(=O)[C@@H](NC(=O)[C@H](Cc1ccccc1)NC(=O)[C@@H](NC(=O)CNC(=O)[C@@H](N)CCC(=O)O)[C@@H](C)O)[C@@H](C)CC)[C@@H](C)CC)C(=O)N[C@@H](Cc1c[nH]cn1)C(=O)N[C@@H](CCC(N)=O)C(=O)N[C@@H](CCC(N)=O)C(=O)N[C@@H](CC(=O)O)C(=O)N[C@@H](Cc1ccccc1)C(=O)N[C@H](C(=O)N[C@@H](CCC(=O)O)C(=O)N[C@@H](Cc1c[nH]c2ccccc12)C(=O)N[C@@H](CC(C)C)C(=O)N[C@@H](CC(C)C)C(=O)N[C@@H](C)C(=O)N[C@@H](CCC(N)=O)C(=O)N[C@@H](CCCCN)C(=O)N1CCC[C@H]1C(=O)N[C@@H](CO)C(=O)N[C@@H](CO)C(=O)NCC(=O)N[C@@H](C)C(=O)N1CCC[C@H]1C(=O)N1CCC[C@H]1C(=O)N1CCC[C@H]1C(=O)N[C@@H](CO)C(=O)O)C(C)C` [AT740] (H-EGTFISDYSIK(C16 diacid)MDKIHQQDFVEWLLAQKPSSGAPPPS-OH; N-terminus assumed) yielded a Time without fibrillation of over 96 h.

Work on `CC[C@H](C)[C@H](NC(=O)[C@H](CO)NC(=O)[C@H](Cc1ccc(O)cc1)NC(=O)[C@H](CC(=O)O)NC(=O)[C@H](CO)NC(=O)[C@@H](NC(=O)[C@H](Cc1ccccc1)NC(=O)[C@@H](NC(=O)CNC(=O)[C@@H](N)CCC(=O)O)[C@@H](C)O)[C@@H](C)CC)C(=O)N[C@@H](C)C(=O)N[C@@H](CC(C)C)C(=O)N[C@@H](CC(=O)O)C(=O)N[C@@H](CCCCN)C(=O)N[C@H](C(=O)N[C@@H](CCCCNC(=O)CCCCCCCCCCCCCCC(=O)O)C(=O)N[C@@H](CCC(N)=O)C(=O)N[C@@H](CCC(N)=O)C(=O)N[C@@H](CC(=O)O)C(=O)N[C@@H](Cc1ccccc1)C(=O)N[C@H](C(=O)N[C@@H](CCC(=O)O)C(=O)N[C@@H](Cc1c[nH]c2ccccc12)C(=O)N[C@@H](CC(C)C)C(=O)N[C@@H](CC(C)C)C(=O)N[C@@H](C)C(=O)N[C@@H](CCC(N)=O)C(=O)N[C@@H](CCCCN)C(=O)N1CCC[C@H]1C(=O)N[C@@H](CO)C(=O)N[C@@H](CO)C(=O)NCC(=O)N[C@@H](C)C(=O)N1CCC[C@H]1C(=O)N1CCC[C@H]1C(=O)N1CCC[C@H]1C(=O)N[C@@H](CO)C(=O)O)C(C)C)[C@@H](C)CC` [AT668] (H-EGTFISDYSIALDKIK(C16 diacid)QQDFVEWLLAQKPSSGAPPPS-OH; N-terminus assumed) yielded a Time without fibrillation of over 96 h.

`CC[C@H](C)[C@H](NC(=O)[C@H](CO)NC(=O)[C@H](Cc1ccc(O)cc1)NC(=O)[C@H](CC(=O)O)NC(=O)[C@H](CO)NC(=O)[C@@H](NC(=O)[C@H](Cc1ccccc1)NC(=O)[C@@H](NC(=O)CNC(=O)[C@@H](N)CCC(=O)O)[C@@H](C)O)[C@@H](C)CC)C(=O)N[C@@H](C)C(=O)N[C@@H](CCSC)C(=O)N[C@@H](CC(=O)O)C(=O)N[C@@H](CCCCN)C(=O)N[C@H](C(=O)N[C@@H](Cc1c[nH]cn1)C(=O)N[C@@H](CCC(N)=O)C(=O)N[C@@H](CCC(N)=O)C(=O)N[C@@H](CC(=O)O)C(=O)N[C@@H](Cc1ccccc1)C(=O)N[C@H](C(=O)N[C@@H](CCC(=O)O)C(=O)N[C@@H](Cc1c[nH]c2ccccc12)C(=O)N[C@@H](CC(C)C)C(=O)N[C@@H](CC(C)C)C(=O)N[C@@H](C)C(=O)N[C@@H](CCC(N)=O)C(=O)N[C@@H](CCCCN)C(=O)N1CCC[C@H]1C(=O)N[C@@H](CO)C(=O)N[C@@H](CO)C(=O)NCC(=O)N[C@@H](C)C(=O)N1CCC[C@H]1C(=O)N1CCC[C@H]1C(=O)N1CCC[C@H]1C(=O)N[C@@H](CO)C(=O)N[C@@H](CCCCNC(=O)CCCCCCCCCCCCCCC(=O)O)C(=O)O)C(C)C)[C@@H](C)CC` [AT744] (H-EGTFISDYSIAMDKIHQQDFVEWLLAQKPSSGAPPPSK(C16 diacid)-OH; N-terminus assumed) gave a Time without fibrillation of over 96 h.
